{
  "source": "PubChem BioAssay AID652104",
  "about": "(National Center for Advancing Translational Sciences (NCATS), 2013)",
  "note": "The campaign covered roughly 410,000 compounds. About 7,200 (1.8%) were called active. Inconclusive means that the source gave no clear call. Such entries were picked first, then a sample of the others. Calls come from the whole dose curve; as a rule, active = well fitted activation curve with a large enough effect; inconclusive = small, poorly fitted or top-dose-only effect, or another doubt; inactive = no such curve, though single readings can be large or run the other way. Potencies of inconclusive entries are left out as doubtful fits. Potency is the fitted concentration of half-maximal effect; tags give direction and shape of the fitted curve.",
  "data": [
    {"assay": "qHTS of TDP-43 Inhibitors; note: nearly all actives have a fitted effect of over 50% in size; for growth rescue (activation): % of control where 0% means no effect", "settings": "TDP-43 expressing yeast growth rescue, BacTiter-Glo, 24 h; growth rescue (activation): at 46.1 µM (top of the series) unless noted", "summary_of_the_method": "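Yeast cells expressing TDP-43 under galactose induction are exposed to compounds for 24 hr at 30 deg C. BacTiter-Glo luminescence measures growth, so protective compounds score as activators.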", "values": [
      {"smiles": "COc1ccc(-c2noc(CCC(=O)Nc3ccc4c(c3)OCCO4)n2)cc1", "Potency": "inconclusive [activator, partial curve]"},
      {"smiles": "O=C1c2ccc(Oc3ccc([N+](=O)[O-])cc3)cc2C(=O)N1CCCO", "Potency": "inconclusive [activator, single point]"},
      {"smiles": "Cc1ccc(/C=C/C(=O)Nn2cnnc2)cc1", "Potency": "inconclusive [activator, partial curve]"},
      {"smiles": "Cc1nc2nncn2c(NCc2ccc(Cl)cc2)c1C", "growth rescue (activation)": "inactive: 0%"},
      {"smiles": "CCOc1ccc(Nc2ncnc3c2cnn3Cc2ccccc2)cc1", "Potency": "inconclusive [activator, single point]"},
      {"smiles": "Fc1ccc(OCCn2cnc(Cl)c2Cl)cc1", "Potency": "inconclusive [activator, partial curve]"},
      {"smiles": "COc1ccc(Cn2c(=O)sc3ccccc32)cc1", "Potency": "inconclusive [activator, partial curve, poor fit]"},
      {"smiles": "CCOc1ccc(C2=NC(c3ccc(OC)cc3)=Nc3ccc(Cl)cc3N2)cc1", "Potency": "inconclusive [activator, partial curve]"},
      {"smiles": "O=C(NCc1ccccc1)C1COc2ccccc2O1", "note": "(stereo unspecified)", "Potency": "inconclusive [activator, single point]"},
      {"smiles": "O=C(c1cccs1)N1CCCN(c2ncnc3scc(-c4ccccc4)c23)CC1", "Potency": "inconclusive [activator, single point]"},
      {"smiles": "O=C(Cn1cc(S(=O)(=O)N2CCCC2)c(S(=O)(=O)N2CCCC2)c1)Nc1cccc(F)c1", "growth rescue (activation)": "inactive: 23.5%"},
      {"smiles": "COc1ccccc1CNC(=O)CN1C(=O)COc2ccc(S(=O)(=O)N3CCC(C)CC3)cc21", "growth rescue (activation)": "inactive: 17.7%"},
      {"smiles": "CC(NC(=O)c1ccc([N+](=O)[O-])o1)C1CC2CCC1C2", "note": "(stereo unspecified)", "Potency": "inconclusive [activator, single point]"},
      {"smiles": "Cc1cc2c(c(=O)n1CCc1ccccc1)C(C(C)C)C(C#N)=C(N)O2", "note": "(stereo unspecified)", "growth rescue (activation)": "inactive: 7.8%"},
      {"smiles": "COc1ccc(Oc2c(O)c3ccccc3n(C)c2=O)cc1", "growth rescue (activation)": "inactive: 19.7%"},
      {"smiles": "CC(C)C[C@H]1CNC(=S)N1C[C@H]1CCCN1C[C@H](CC(C)C)N1C[C@H](Cc2ccc(O)cc2)N(CC2CCCCCC2)C1=S", "Potency": "inconclusive [activator, partial curve]"},
      {"smiles": "Cc1ccc(-n2nc(CO)c(C(=O)NC(C)CCCc3ccccc3)n2)cc1C", "note": "(stereo unspecified)", "growth rescue (activation)": "inactive: -6.08%"},
      {"smiles": "Cc1c(NC(=O)COC(=O)c2ccccc2Cl)c(=O)n(-c2ccccc2)n1C", "Potency": "inconclusive [activator, full curve, poor fit]"},
      {"smiles": "O=C(NC1CCCCC1)c1cccc(Cn2cc(Cl)cn2)c1", "Potency": "inconclusive [activator, partial curve]"},
      {"smiles": "Cc1ccc(O)c(NC(=O)c2ccc(Br)c(S(=O)(=O)N3CCCCC3)c2)c1", "Potency": "inconclusive [activator, single point]"},
      {"smiles": "Cc1ccc(OCC(=O)c2cc(C)n(-c3ccccc3)c2C)c([N+](=O)[O-])n1", "Potency": "inconclusive [activator, single point]"},
      {"smiles": "Cc1ccc(O)c(C(=O)/C=C/c2ccc3c(c2)OCCO3)c1", "Potency": "active: 17.8 µM"},
      {"smiles": "COC(=O)c1scc(C)c1NC(=O)/C=C/C(=O)O", "Potency": "inconclusive [activator, full curve, poor fit]"},
      {"smiles": "COc1cc(Cl)c(S(=O)(=O)N2CC(C)OC(C)C2)cc1Cl", "note": "(stereo unspecified)", "Potency": "inconclusive [activator, single point]"},
      {"smiles": "COc1ccccc1CNc1cc(-c2ccccc2)ccc1OC", "Potency": "active: 12.6 µM"},
      {"smiles": "COc1ccc(Cl)cc1NC(=O)COC(=O)CCc1cc(OC)c(OC)c(OC)c1", "Potency": "inconclusive [activator, partial curve]"},
      {"smiles": "O=C(Cn1cnc2c(NCc3ccccc3)ncnc21)NCc1ccc2[nH]ccc2c1", "growth rescue (activation)": "inactive: 16.9%"},
      {"smiles": "Cc1cc(Nc2ccc(C(C)C)cc2)n2ncnc2n1", "Potency": "active: 11.2 µM"},
      {"smiles": "CSc1ncccc1C(=O)Nc1ccc2nc(C)sc2c1", "Potency": "inconclusive [activator, full curve, poor fit]"},
      {"smiles": "CCOC(=O)C1(Cc2ccccc2C)CCCN(S(=O)(=O)c2cccnc2)C1", "note": "(stereo unspecified)", "Potency": "inconclusive [activator, single point]"},
      {"smiles": "O=C(C1CCCCC1)N1C[C@@H](n2cc(-c3ccc(F)cc3)nn2)[C@H](O)C[C@@H]1c1ccc(Cl)cc1", "Potency": "active: 22.4 µM"},
      {"smiles": "N/C(=N\\c1nc2ccccc2o1)NC(=O)c1ccc(Cl)cc1", "Potency": "inconclusive [activator, partial curve]"},
      {"smiles": "Cc1nc(N2CCN(C(=O)c3cccs3)CC2)c2c3c(sc2n1)CCCC3", "Potency": "inconclusive [activator, single point]"},
      {"smiles": "CCOc1ccccc1NC(=O)CCc1c(C)nn(-c2ccc(N3CCOCC3)nn2)c1C", "Potency": "inconclusive [activator, partial curve]"},
      {"smiles": "CC1CCc2c(sc(/N=C/c3cccnc3)c2C(N)=O)C1", "note": "(stereo unspecified)", "growth rescue (activation)": "inactive: -5.35%"},
      {"smiles": "Cc1ccc(Cc2c(-c3ccc(C)cc3)nc3c(C)cc(Br)cn23)cc1", "growth rescue (activation)": "inactive: 6.39%"},
      {"smiles": "Cc1cc(Cl)ccc1C(=O)C1CCCN(C(=O)c2nonc2C)C1", "note": "(stereo unspecified)", "Potency": "inconclusive [activator, partial curve]"},
      {"smiles": "CC1CCc2c(sc3nc(CN4CCOCC4)nc(NS(=O)(=O)c4cccc([N+](=O)[O-])c4)c23)C1", "note": "(stereo unspecified)", "Potency": "inconclusive [activator, single point]"},
      {"smiles": "CC(=O)Nc1nonc1-c1nnc(SCC(=O)Nc2ccccc2)n1-c1ccccc1", "growth rescue (activation)": "inactive: 0% [at 9.22 µM]"},
      {"smiles": "O=C(COc1ccc(F)cc1)Nc1nc(-c2cccnc2)cs1", "Potency": "inconclusive [activator, full curve]"},
      {"smiles": "CC(C)COC(=O)NCCCOC(=O)Nc1ccccc1", "growth rescue (activation)": "inactive: 18.2%"},
      {"smiles": "COc1ccc(C(=S)N2CCCCC2)cc1Br", "Potency": "inconclusive [activator, partial curve]"},
      {"smiles": "O=[N+]([O-])c1ccc2[nH]ccc2c1", "Potency": "inconclusive [activator, partial curve, poor fit]"},
      {"smiles": "Cc1sc2ncnc(Nc3ccccc3)c2c1C", "Potency": "inconclusive [activator, single point]"},
      {"smiles": "Cc1ccc(N2NC(C)(c3cccs3)NC2=S)cc1", "note": "(stereo unspecified)", "Potency": "inconclusive [activator, single point]"},
      {"smiles": "Cc1cccc2sc(NC(=O)CCn3cccc3)nc12", "Potency": "inconclusive [activator, single point]"},
      {"smiles": "CC1(C)N=C(SCC(=O)Nc2ccccc2)C(c2ccc(Cl)cc2)=N1", "Potency": "active: 17.8 µM"},
      {"smiles": "N#C/C(C(=O)Nc1ccc(Cl)cc1)=C(/S)Nc1ccccc1", "Potency": "inconclusive [activator, single point]"},
      {"smiles": "Cc1ccc(S(=O)(=O)/N=C(/NC(=S)Nc2ccccc2)c2ccccc2)cc1", "Potency": "inconclusive [activator, partial curve, poor fit]"},
      {"smiles": "CCCCSCCCNC(=O)c1cn(C)c2ccc(S(=O)(=O)N3CCCCC3)cc2c1=O", "growth rescue (activation)": "inactive: 4.23%"},
      {"smiles": "O=S(=O)(CCc1nc2ccccc2s1)c1ccc2ccccc2c1", "Potency": "inconclusive [activator, partial curve, poor fit]"},
      {"smiles": "Cc1ccc(-n2cc(-c3ccccc3)nc2S(=O)(=O)CC(=O)Nc2ccc(F)cc2)cc1", "growth rescue (activation)": "inactive: 5.38%"},
      {"smiles": "CSc1nnc(NC(=O)c2nc(S(=O)(=O)Cc3ccccc3F)ncc2Cl)s1", "growth rescue (activation)": "inactive: 25.3%"},
      {"smiles": "COc1cccc(CNC(=O)c2ccc3c(c2)nnn3C2CCCC2)c1", "Potency": "inconclusive [activator, single point]"},
      {"smiles": "Cc1ccc(C)c(OCC(=O)NCC2COc3ccccc3O2)c1", "note": "(stereo unspecified)", "Potency": "inconclusive [activator, partial curve]"},
      {"smiles": "CSc1ccc(S(=O)(=O)N2CCC(C(=O)N3CCOCC3)CC2)cc1", "Potency": "inconclusive [activator, single point]"},
      {"smiles": "COc1ccccc1NC(=O)Nc1ccnn1Cc1cccs1", "growth rescue (activation)": "inactive: -5%"},
      {"smiles": "CCc1ccccc1N(CC(=O)NC1CCCCC1)C(=O)CCCC(=O)Nc1ccccn1", "Potency": "inconclusive [activator, partial curve]"},
      {"smiles": "O=CNCCCc1nc2ccccc2n1CCc1ccccc1", "growth rescue (activation)": "inactive: -10.6%"},
      {"smiles": "C=C(C)COc1ccc(-c2[nH]ncc2-c2ccc(OC)cc2)c(O)c1", "Potency": "inconclusive [activator, partial curve]"},
      {"smiles": "COc1ccc(C)cc1NC(=O)Cn1c(=O)cc(C)c2c(C)nn(C)c21", "growth rescue (activation)": "inactive: 9.73%"},
      {"smiles": "CC1=C(C(=O)N(C)C)CC(CC(=O)NC(c2ccccc2)c2ccccc2)C(=O)N1Cc1ccc(C(C)(C)C)cc1", "note": "(stereo unspecified)", "Potency": "inconclusive [activator, partial curve]"},
      {"smiles": "O=C(O)CC1(CC(=O)Nc2ccc3sccc3c2)CCCCC1", "Potency": "active: 7.94 µM"},
      {"smiles": "Oc1[nH]c2ccccc2c1N=NC(=S)NCCc1ccccc1", "Potency": "inconclusive [activator, single point]"},
      {"smiles": "CCCn1c(C(C)Nc2nc(C)cs2)nc2cc(Cl)c(Cl)cc21", "note": "(stereo unspecified)", "Potency": "inconclusive [activator, partial curve]"},
      {"smiles": "CCCN(C(=O)c1cnccn1)c1c(N)n(Cc2ccccc2)c(=O)[nH]c1=O", "Potency": "inconclusive [activator, full curve, poor fit]"},
      {"smiles": "CCSc1nc2ccccc2n1Cc1ccccc1F", "Potency": "active: 14.1 µM"},
      {"smiles": "CCOC(=O)c1ccc(NC(=O)/C(C#N)=C/c2ccc(OC)cc2)cc1", "growth rescue (activation)": "inactive: 26.2%"},
      {"smiles": "CCc1cccc(C)c1NC(=O)c1cc(S(=O)(=O)NCc2ccccc2Cl)ccc1F", "growth rescue (activation)": "inactive: -8.96%"},
      {"smiles": "CCCn1c2ccccc2c2cnn(CC(=O)N(C)c3ccccc3CC)c(=O)c21", "Potency": "active: 28.2 µM"},
      {"smiles": "O=C(CN(c1ccc([N+](=O)[O-])cc1)S(=O)(=O)c1ccccc1)N1CCCCC1", "growth rescue (activation)": "inactive: 1.03%"}
    ]}
  ]
}
